Out of some 420,000 compounds screened, about 50,000 (12%) were called active. The inconclusive results got no clear call from the source; some entries with a clear call stand among them for comparison. Calls follow the shape of the dose curve; as a rule, active = well fitted inhibition curve with a large enough effect; inconclusive = small, poorly fitted or top-dose-only effect; inactive = flat fitted curve, though single readings scatter. Potencies of inconclusive entries are left out as doubtful fits.
assay: qHTS for Inhibitors of human tyrosyl-DNA phosphodiesterase 1 (TDP1): qHTS in cells in presence of CPT; settings: chicken DT40 Tdp1-/-;hTDP1 cells + 20 nM CPT, ATP luminescence, 48 h; activity change, negative = growth inhibition: at 46.2 µM (top of the series) unless noted; also: nearly all actives have a fitted effect of over 55% in size
Summary of the method: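 Cell growth measured by CellTiter-Glo luminescence after a minimum 48 h, 37 C compound exposure with 20 nM CPT in Tdp1-knockout DT40 cells stably expressing hTDP1, seeded 400/well; qHTS titration format.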
% is scaled to controls: 0 for no effect and ±100 for the full control effect; potency is read from the fitted curve at half-maximal effect; tags tell the direction and shape of the fitted curve.

**Q.** For `Cc1ccccc1S(=O)(=O)NC(=O)C1(C)CCN1C(=O)C1(c2ccc(Cl)cc2)CCC1` (stereo unspecified), which activity change, negative = growth inhibition is on record?
**A.** Its activity change, negative = growth inhibition is inconclusive: -33.9% [inhibitor].

**Q.** For `CCn1nc(C)cc1C(=O)NCCN1Cc2ccccc2OC(c2ccccc2F)C1` (stereo unspecified), which Potency is on record?
**A.** Its Potency is inconclusive [inhibitor, single point].

**Q.** Which Potency does the source give for `O=C(O)c1cc(N/N=C/c2ccncc2)ccc1Cl` here?
**A.** Its Potency is “inactive”.

**Q.** With `CCC1CCCCN1CCCNC(=O)c1c(C)oc2ncn(CC(C)C)c(=O)c12` (stereo unspecified) as the compound, how does the Potency read?
**A.** The Potency was “inactive”.

**Q.** With `COc1ccc(/C=N/NC(N)=S)cc1` as the compound, how does the Potency read?
**A.** Its Potency is inconclusive [inhibitor, partial curve, poor fit].

**Q.** For `COc1cc(Cl)c(S(=O)(=O)NCc2cccnc2)cc1Cl`, which activity change, negative = growth inhibition is on record?
**A.** The activity change, negative = growth inhibition was inconclusive: -26.8% [inhibitor].

**Q.** Which Potency does the source give for `Cc1ccc(NCCCn2cnc3c(OCc4ccccc4)ncnc32)cc1C` here?
**A.** The Potency was inconclusive [inhibitor, single point].

**Q.** With `Nc1c(C(=O)CSc2nc3ccccc3o2)c(=O)[nH]c(=O)n1C1CC1` as the compound, how does the Potency read?
**A.** Its Potency is inconclusive [inhibitor, partial curve].

**Q.** For `O=C(C1=C[C@H](c2ccccc2)C[C@H](OCc2ccc(CO)cc2)O1)N1CCN(Cc2ccccc2)CC1`, which Potency is on record?
**A.** Its Potency is inconclusive [inhibitor, single point].

**Q.** With `CC(C)c1ccc2oc(-c3cc(NC(=O)c4cccnc4)ccc3Cl)nc2c1` as the compound, how does the Potency read?
**A.** Its Potency is inconclusive [inhibitor, single point].

**Q.** Which Potency does the source give for `Cn1c(SCC(=O)c2ccccc2F)nnc1C1CC1` here?
**A.** Its Potency is “inactive”.

**Q.** With `Cc1ccc(N2CC(C(=O)NCc3nnnn3-c3ccc(C)c(C)c3)CC2=O)cc1C` (stereo unspecified) as the compound, how does the Potency read?
**A.** The Potency was “inactive”.

**Q.** With `COC(=O)CN1C(=O)[C@H]2[C@@H](/C=C/c3ccccc3)N3C(=O)CN(CCO)C(=O)[C@@]3(Cc3ccccc3)[C@H]2C1=O` as the compound, how does the Potency read?
**A.** The Potency was “inactive”.

**Q.** Which Potency does the source give for `CCOC(=O)C1(Cc2cccc(OC)c2)CCN(CC(O)CO)CC1` (stereo unspecified) here?
**A.** The Potency was “inactive”.

**Q.** Which Potency does the source give for `Cc1ccccc1OCC(=O)Nc1ccc2nc(SCCOc3ccccc3)sc2c1` here?
**A.** Its Potency is “inactive”.

**Q.** With `CCn1c(SC(C)C(=O)Nc2ccc(N3CCOCC3)cc2)nnc1-c1ccco1` (stereo unspecified) as the compound, how does the Potency read?
**A.** The Potency was “inactive”.

**Q.** Which Potency does the source give for `Cc1ccc2c(C)c(C(=O)N3CCC(C(N)=O)(N4CCCCC4)CC3)oc2c1C` here?
**A.** The Potency was inconclusive [inhibitor, single point].

**Q.** Which Potency does the source give for `COC(=O)C1=C(C)N(Cc2ccccc2)C(=NCCc2c[nH]c3ccccc23)N[C@H]1c1ccccc1` here?
**A.** The Potency was inconclusive [inhibitor, single point].

**Q.** With `O=C(CSc1nc2ccccc2nc1Cc1ccc(Cl)cc1)N1CCN(c2ccccc2F)CC1` as the compound, how does the Potency read?
**A.** The Potency was active: 16.4 µM.

**Q.** For `Cc1nc(SCC(=O)c2cc(C)n(C3CC3)c2C)c2ccccc2n1`, which Potency is on record?
**A.** The Potency was active: 8.2 µM.

**Q.** For `COc1ccccc1C1c2[nH]c3ccccc3c2C[C@H]2C(=O)N(C3CCN(Cc4ccccc4)CC3)CC(=O)N12` (stereo partly specified), which Potency is on record?
**A.** Its Potency is inconclusive [inhibitor, single point].

**Q.** Which Potency does the source give for `Cc1ccc(/C=N/NC(=O)CSc2nc3ccccc3s2)o1` here?
**A.** Its Potency is “inactive”.

**Q.** With `Cc1ccc(-c2nnc(Nc3ccc(S(N)(=O)=O)cc3)c3ccccc23)cc1S(=O)(=O)N1CCOCC1` as the compound, how does the Potency read?
**A.** The Potency was active: 16.4 µM.

**Q.** With `CC(=O)CS(=O)(=O)c1ccc(Oc2ccc(S(=O)(=O)CC(C)=O)cc2)cc1` as the compound, how does the Potency read?
**A.** Its Potency is inconclusive [inhibitor, single point].

**Q.** With `CCc1ccccc1NC(=O)C(=O)NCC(c1cccnc1)N1CCc2ccccc21` (stereo unspecified) as the compound, how does the Potency read?
**A.** The Potency was inconclusive [inhibitor, single point].

**Q.** For `O=C(CCN1CCCCO1)N1CCCC(Nc2ccc(F)cc2)C1` (stereo unspecified), which Potency is on record?
**A.** Its Potency is “inactive”.

**Q.** Which Potency does the source give for `CCOc1ccc(-c2cc(C(=O)N3CCN(c4cccc(C)c4)C(C)C3)c3ccccc3n2)cc1` (stereo unspecified) here?
**A.** Its Potency is active: 16.4 µM.

**Q.** For `CCCNC(=O)c1nnsc1S(=O)c1ccc(Cl)cc1` (stereo unspecified), which Potency is on record?
**A.** Its Potency is active: 0.411 µM.

**Q.** Which Potency does the source give for `COc1ccccc1C1CC(c2ccccc2)=NN1C(=S)Nc1ccccc1` (stereo unspecified) here?
**A.** The Potency was inconclusive [inhibitor, single point].

**Q.** Which Potency does the source give for `Cc1ccccc1N(C)S(=O)(=O)c1ccc2[nH]cc(C(=O)NCC3CCCO3)c(=O)c2c1` (stereo unspecified) here?
**A.** Its Potency is inconclusive [inhibitor, single point].

**Q.** With `CN(C)S(=O)(=O)c1ccc(NC(=O)Cn2c(-c3ccccc3)noc2=O)cc1` as the compound, how does the Potency read?
**A.** Its Potency is inconclusive [inhibitor, single point].

**Q.** Which Potency does the source give for `CN(C(=O)CSc1nc2ccc(NC(=O)CCc3ccccc3)cc2s1)c1ccccc1` here?
**A.** The Potency was active: 18.4 µM.

**Q.** For `COc1ccc(C2OC(=O)CC2C(=O)NC2CCCCCC2)cc1OC` (stereo unspecified), which Potency is on record?
**A.** Its Potency is “inactive”.

**Q.** With `Cc1ccc(C)c(Cn2c(SCC(=O)N(C)Cc3ccccc3)nc3ccccc32)c1` as the compound, how does the Potency read?
**A.** The Potency was active: 25.9 µM.

**Q.** Which Potency does the source give for `COc1ccc(OCC(O)CN2CCC(CN3C(=O)c4cccc5cccc(c45)C3=O)CC2)cc1` (stereo unspecified) here?
**A.** The Potency was active: 13 µM.

**Q.** With `Cc1ccc(C)c(N2CCN(C(=O)CCCCCn3c(=O)[nH]c4ccccc4c3=O)CC2)c1` as the compound, how does the Potency read?
**A.** Its Potency is inconclusive [inhibitor, partial curve].

**Q.** With `N#C/C(=C\c1cccc(Cl)c1)C(=O)c1ccccc1` as the compound, how does the Potency read?
**A.** Its Potency is inconclusive [inhibitor, partial curve].

**Q.** With `CCn1nnc2c(N3CCCC3)ncnc21` as the compound, how does the Potency read?
**A.** Its Potency is inconclusive [inhibitor, single point].

**Q.** For `Nc1cc[n+](CC(=O)c2ccccc2)cc1`, which Potency is on record?
**A.** Its Potency is inconclusive [inhibitor, single point].

**Q.** For `CCn1c(-c2ccc3ncccc3c2)n[nH]c1=S`, which Potency is on record?
**A.** The Potency was inconclusive [inhibitor, single point].

**Q.** For `COc1ccccc1NC(=O)CN(Cc1ccco1)C(=O)c1ccc(-n2nc(C)cc2C)cc1`, which Potency is on record?
**A.** The Potency was inconclusive [inhibitor, single point].

**Q.** Which Potency does the source give for `O=C(COC(=O)c1cccc(F)c1)Nc1cccnc1Cl` here?
**A.** The Potency was “inactive”.

**Q.** For `Cc1cc(NC(=O)c2ccccc2)ncc1NC(=O)c1cccs1`, which Potency is on record?
**A.** Its Potency is inconclusive [inhibitor, single point].

**Q.** Which activity change, negative = growth inhibition does the source give for `COc1ccccc1C(=O)Nc1cccc(N2CCC(NCc3cnn(-c4ccccc4)n3)CC2)c1` here?
**A.** Its activity change, negative = growth inhibition is inactive: -9.21% [at 9.04 µM].

**Q.** Which Potency does the source give for `CN1C(=O)[C@H]2[C@@H](c3ccccc3)N[C@]3(CCCN(Cc4ccc(F)cc4)C3=O)[C@H]2C1=O` here?
**A.** Its Potency is “inactive”.

**Q.** Which Potency does the source give for `COc1ccc2c(c1)Cc1sc(NC(=O)c3cccc(F)c3)nc1-2` here?
**A.** Its Potency is inconclusive [inhibitor, single point].

— PubChem BioAssay AID686979 (National Center for Advancing Translational Sciences (NCATS), 2013)
